Test results taken from the supplement of paper PMC3334620.
The full ranking holds about 33,000 sequences; the median of “E-score (-0.5 to 0.5)” is about -0.016, and the highest 2% start at about 0.31. This is one part of the list.

Target: Cst6 (UniProt P40535)
Test: PBM E-score (8-mer binding enrichment) (E-score (-0.5 to 0.5)); higher = stronger / more preferred TF binding; most listed sequences are background and not binding sites
Details: protein concentration: 200 nM; construct: GST-DNA-binding domain
How it was run: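 Masliner-normalised scans of fluorescent anti-GST signal were the basis for scoring. That signal came from GST-tagged yeast transcription factors applied at about 100-200 nM to double-stranded universal all-10-mer Agilent arrays on fresh or once-stripped slides. Each ungapped eight-base word, pooled with its reverse complement, received an E-score from the Universal PBM Analysis Suite.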

Sequence | PBM E-score
TGGTCTAA | -0.176
GACAGGCC | -0.211
GCGGCAGA | -0.0055
CGAAAGGC | 0.17
GATAATTA | 0.322
CACTGACG | 0.371
CGCTCAAA | -0.0669
CCGTTCTC | 0.0435
AAATAGGA | 0.164
AACTGCTG | -0.205
AGAGGGTA | -0.0387
CGCAGCCG | -0.202
AGCTACCG | -0.183
AGTGTACG | -0.105
ATCCAATA | 0.222
TAAGCGGA | 0.0337
CGTTAGCC | 0.131
CCCAACCC | -0.0951
CAGAACTA | 0.0299
ACGCCACT | 0.161
GTCTGCCA | -0.185
ACGAAACA | 0.198
GTCTCCGA | -0.221
ACTGGCCA | -0.0418
AAATTAAA | 0.292

Sequence | PBM E-score
AATCTGCC | -0.105
GCATCAGA | 0.159
GTACCCTA | -0.0546
AACGTCTT | 0.156
CGCTGACG | 0.384
TATGTGCA | 0.0745
TATAAACA | 0.158
CAGTTTGA | 0.035
GCCGCTCC | 0.00162
ACACCTGT | -0.144
CGCTGCAA | 0.0442
AAGGCGCT | 0.118
GTCACAAA | 0.221
AATTCTCT | -0.137
CCCCGGAG | -0.0966
AATCTAGG | 0.0667
ACAGTGTG | 0.087
AGCGTGTA | -0.0303
CCAAAAGG | -0.1
GTTGATCA | 0.219
GAATAGAC | 0.0948
GTGGGTGA | 0.123
ACTGATGA | 0.173
GAAACCGA | -0.156
CCTCAATC | 0.0338

Sequence | PBM E-score
ACATAATA | 0.345
CTGCAAGC | -0.119
CCAGCAGA | -0.191
CATCGGAG | -0.183
CTGATCAA | -0.0253
CGTCGTAC | 0.122
ACTGGAGC | -0.202
GGCACGAA | 0.196
CAGATCTG | -0.0953
AATTAAGT | 0.145
CGACAAAC | -0.0571
AATTCAGA | 0.0495
CACGGGGG | -0.209
TGACCTCA | 0.45
CTTGGCAA | -0.151
CAATGCTG | -0.0945
GGAGTACA | -0.195
CAAAAGCG | 0.0348
GGAATTCA | -0.0551
ACAAAACT | 0.199
AATGGAAC | 0.0271
AAGAATAG | 0.108
ACCAGAGC | -0.0786
AACTCAAG | -0.0175
AGTTGGTA | 0.155

Sequence | PBM E-score
ACTTGGCG | -0.143
GCGACCCC | -0.3
CGAAAGCG | -0.0837
AGGGCTCC | -0.376
GGGACATA | -0.0929
CCTTGTCG | -0.171
ATCTCATG | -0.00941
ACATCGGC | -0.0191
GCATTCAC | 0.143
ACAATAGT | 0.13
AAGAATAA | 0.212
AACAGACG | -0.0682
AAACTTCG | 0.0971
GCAAAGAC | 0.0343
ACTTGGAA | -0.0384
ATCTGGCA | 0.043
CCAGACGA | -0.23
ACGGCAAG | 0.0822
AATGCCAC | 0.00101
GTCGTATA | 0.0476
AAGGAGCT | -0.23
CTACATGC | -0.0289
GACGCCAC | 0.221
ATCGGACC | -0.197
CCCCCAAC | -0.319

Sequence | PBM E-score
GTAGCAGA | 0.174
ACCCCGCG | -0.216
AAGGAAGC | -0.261
TAGAACCA | -0.128
GCAAGATA | 0.103
CCTGTGGA | -0.38
GTGCTGGA | -0.274
CAGGCACA | -0.332
CTAGATGA | 0.0805
AGAGGTGC | -0.186
GAGGTTTA | -0.0683
GTAATAAC | 0.197
ACGCTAAC | 0.0936
GCGACCGC | -0.125
ATGCCGGC | -0.164
GCTGGTCA | -0.122
ATATGCAG | -0.116
CCTCAAAG | -0.0862
AGCAGTGA | 0.148
AGGGTCGA | -0.254
AACTGTCT | -0.123
CCGTTTAG | 0.00119
ATGGTGGA | -0.172
ACCTCAGT | 0.013
AGTGAGTC | -0.0412

Sequence | PBM E-score
AAGCGTTA | -0.149
ATTTAGAG | 0.0903
GCCCTTCC | -0.121
CAATTTGC | -0.0498
AAGCGGAC | -0.119
ATTCGCTG | 0.0849
AACCGCTT | -0.0625
ATCGGGAG | -0.228
GACCGCGC | -0.119
CGAGAAAC | -0.173
GCGAAGTA | 0.0714
ACCGGGGC | -0.0853
CACGGTGG | -0.124
ATCGACAC | -0.104
ACGGTGAC | 0.307
CTTCACAA | -0.0895
ACAATGAG | -0.0976
CCACGCTC | -0.197
ATCTTTCG | 0.0283
AACAGTGG | -0.141
CCTACCCC | -0.353
GATAGTAC | -0.0262
CTGCCGAC | -0.208
ACATAAAA | 0.215
AAATCAGA | 0.152

Sequence | PBM E-score
CAACCTGG | -0.0574
CCCCGGAA | -0.285
ACGTCGAT | 0.316
ACTAACTC | -0.0482
ACTTGTCT | -0.056
ATTCTCCA | -0.00083
AGACGGGA | -0.17
CCCCCACA | -0.344
CCACGCCC | -0.318
ACCAATCA | 0.0481
GTCTTTCA | 0.103
ACAGACAT | 0.0036
ACGTTTGC | 0.0388
TACCATGA | 0.0226
AGGGCCCG | -0.287
CTGATAAG | 0.147
CAATTAGC | 0.00345
CCGTCATA | 0.363
ACACTTTA | 0.0824
ATTGTAAA | 0.219
ATTCAACG | 0.217
ACCTATAC | 0.0599
